# According to PubChem BioAssay AID1347417 (National Center for Advancing Translational Sciences (NCATS), 2020):
# The campaign covered roughly 120,000 compounds. About 5,300 (4.4%) were called active. This list was built around the results that the source calls inconclusive (neither active nor inactive); the mix of calls is not that of the screen. Calls come from the whole dose curve; as a rule, active = well fitted inhibition curve with a large enough effect; inconclusive = small, poorly fitted or top-dose-only effect; inactive = no such curve, though single readings can be large or run the other way. Potencies beside an inconclusive call are fits to weak or partial responses and may not hold up.
# Experiment: qHTS Primary assay for Inhibitors of Plasmodium falciparum Dd2 growth in vitro; note: nearly all actives have a fitted effect of over 65% in size;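 for activity, negative = inhibition: plate controls were DMSO vehicle for no effect and reference drug for full effect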
# Settings: P. falciparum Dd2 growth, SYBR Green, 72 h; activity, negative = inhibition: at 28.9 µM (top of the series) unless noted; series mostly up to 28.9 µM
# Method in brief: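 Readout: SYBR Green fluorescence, 485 nm excitation, 535 nm emission, after ~16 h lysis at 37C. Before that, Dd2-infected red cells (2.5% hematocrit) grew 72 h with compound, 29 uM top final concentration.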
# Potency is the fitted concentration of half-maximal effect; tags give direction and shape of the fitted curve.
SMILES,Potency,"activity, negative = inhibition"
Cc1onc(-c2cnn(C)c2NCCc2ccccc2)c1C(=O)NCc1ccccc1,inactive,
CCCNC(=O)Cc1ccc(N(Cc2ccc(C)cc2)C(=O)c2ccco2)cc1,"inconclusive: 2.51 µM [inhibitor, full curve]",
O=C1CC[C@@H](C(=O)N2CCc3onc(C(c4ccccc4)c4ccccc4)c3C2)N1,inactive,
O=C(CCCCn1c(=O)c2ccccc2n(Cc2ccccc2Cl)c1=O)NCc1ccc2c(c1)OCO2,"inconclusive: 17.8 µM [inhibitor, single point]",
COc1cccc2sc(NC(=O)c3ccc4c(c3)OCCN(C3CCC3)C4)nc12,"inconclusive: 4.47 µM [inhibitor, full curve]",
CN(Cc1ccccc1)Cc1ccccc1OCC(O)CN1CCCCC1 (stereo not drawn),active: 0.794 µM,
CCNc1ccc(-c2nc(-c3ccccn3)no2)cc1[N+](=O)[O-],inactive,
CN1CCN(Cc2ccc(-c3cnc4c(OCc5ccccc5)nccn34)cc2)CC1,"inconclusive: 6.31 µM [inhibitor, partial curve, poor fit]",
CCOC(=O)c1cccc(NC(=O)c2ccc3c(c2)N(CC)C2CCCCCN2C3=O)c1 (stereo not drawn),"inconclusive: 1 µM [inhibitor, partial curve, poor fit]",
CCCn1cnc2c1CN(S(=O)(=O)c1ccccc1)[C@H](C(=O)OC)C2,"inconclusive: 12.6 µM [inhibitor, partial curve, poor fit]",
CC(C)c1nnc2ccc(N3CCN(C)CC3)nn12,inactive,
CCC(C(=O)Nc1ccc2c(c1)CN(Cc1ccccc1Cl)C(=O)C(C)O2)c1ccccc1 (stereo not drawn),"inconclusive: 3.55 µM [inhibitor, full curve, poor fit]",
CN1C(=O)Cc2cc(C(=O)NC3CCCCCC3)ccc21,"inconclusive: 17.8 µM [inhibitor, single point]",
O=C(O)C[C@@H]1CCN(C(=O)C2CCCC2)C[C@@H]1CCN(CCN1CCOCC1)c1ccccc1,inactive,
COc1ccccc1C(=O)NCCn1cc(SCc2ccc(C)cc2)c2ccccc21,"inconclusive: 15.8 µM [inhibitor, single point]",
CN(Cc1ccccc1)C[C@H]1CN2CC[C@H]1C[C@@H]2CNC(=O)Nc1cccc(C#N)c1,"inconclusive: 8.91 µM [inhibitor, partial curve, poor fit]",
CNC(=O)CCn1ncc2cc(OCc3ccccc3-c3ccc(OC)cc3)ccc21,"inconclusive: 5.62 µM [inhibitor, full curve, poor fit]",
O=[S+]1([O-])NCC2(CCN(CC3CCCC3)C2)Oc2ncccc21 (stereo not drawn),active: 12.6 µM,
CCOC(=O)c1[nH]ncc1CN1CCCC(Cc2ccc(F)cc2F)(C(=O)OCC)C1 (stereo not drawn),inactive,
CCc1ccc2nc(N(Cc3cccnc3)C(C)=O)sc2c1,"inconclusive: 17.8 µM [inhibitor, single point]",
COCCn1cc2c3c(cccc31)CN(C(=O)CCc1ccccc1OC)CC2,"inconclusive: 2.51 µM [inhibitor, partial curve, poor fit]",
OCCc1ccc(Nc2cnc3ccc(-c4ccc(F)cc4)nn23)cc1,inactive,

SMILES,Potency,"activity, negative = inhibition"
CCc1ccc(NC(=O)CSc2nc(-c3ccccc3Cl)nc3c2Cc2c(CO)cnc(C)c2O3)cc1,"inconclusive: 17.8 µM [inhibitor, single point]",
CCCNC(=O)C(NC(=O)c1ccc(OC)cc1)C1CCN(C(=O)c2cccc(F)c2)CC1 (stereo not drawn),inactive,
O=C(Nc1ccc(Br)cc1)c1ccc(F)c(S(=O)(=O)N2CCCc3ccccc32)c1,"inconclusive: 8.91 µM [inhibitor, single point]",
Fc1ccc(NC2CCCN(Cc3ccc(C#Cc4cncnc4)cc3)C2)cc1F (stereo not drawn),inactive,
CC(C)Cn1c(=O)c2sccc2n2c(CCCC(=O)NCCc3ccc(Cl)cc3)nnc12,"inconclusive: 4.47 µM [inhibitor, partial curve, poor fit]",
COc1ccc(Oc2c(C(F)(F)F)oc3c(CN4CCCC(C)C4)c(O)ccc3c2=O)cc1 (stereo not drawn),"inconclusive: 0.794 µM [inhibitor, full curve, poor fit]",
Cc1ccc(CN2CCC(C3CCN(C)CC3)C2)o1 (stereo not drawn),inactive,
Cc1cn2nc(C(=O)NCc3cccc(Cl)c3)cc2c(N(C)Cc2ccccc2)n1,"inconclusive: 8.91 µM [inhibitor, partial curve]",
CC(=O)c1ccc(NC(=O)C2Cc3ccccc3N2C(=O)c2ccccc2)cc1 (stereo not drawn),inactive,
CC(=O)Nc1nonc1-c1nnc(SCC(=O)Nc2cccc(F)c2)n1-c1ccccc1,"inconclusive: 8.91 µM [inhibitor, single point]",
CC(C)c1nc(C(=O)N(C)C2CCCN(CCCc3ccccc3)C2)cs1 (stereo not drawn),"inconclusive: 10 µM [inhibitor, single point]",
O=C(Nc1ccc2oc(-c3cccnc3)nc2c1)c1ccc(Br)cc1,"inconclusive: 12.6 µM [inhibitor, single point]",
Cn1ccc2c(C(=O)NCCc3ccccn3)nc(-c3cccc(N4CCOCC4)c3)cc21,"inconclusive: 11.2 µM [inhibitor, single point]",
O=C(CCc1ccccc1)N1CCC2(CC1)NC(=O)N(c1ccccc1)N2,inactive,
O=C(CCCc1ccccc1)N1CCC(C2CCNC2)CC1 (stereo not drawn),inactive,
CN1CC(=O)N(C2CCNCC2)Cc2c1ncnc2N1CCCCC1,,inconclusive: -127% [inhibitor]
COc1cc2c(cc1OC)C(C[C@H]1CN(C(=O)CCc3ccccc3)CC[C@H]1CC(=O)O)=NCC2,"inconclusive: 3.98 µM [inhibitor, single point]",
O=C1CC(Cc2cc(N3CCCCC3)ncn2)CN1c1ccccc1 (stereo not drawn),inactive,
CC(C)Oc1ccc2c(NC(=O)CN3CCCC3=O)nn(Cc3ccccc3)c2c1,"inconclusive: 12.6 µM [inhibitor, single point]",
O=C(NCCCO)C1CC(=O)N(c2n[nH]c3cc(Br)ccc23)C1 (stereo not drawn),"inconclusive: 3.55 µM [inhibitor, partial curve, poor fit]",
CN1CCCC12Cc1ccccc1CN(C(=O)Cc1cccc(Cl)c1)C2 (stereo not drawn),"inconclusive: 6.31 µM [inhibitor, partial curve]",
